Measured values: the supplement of paper PMC12355420
Counter-ions that a name gives are not always drawn. This is one part of the list. Most values come without repeats; read them as rough.

Test system: HeLa VPS33A KO + NLuc-VPS33A R498W
Assay: relative mutant VPS33A R498W amount (NanoLuc luminescence) vs DMSO (fraction of DMSO); HeLa model of a glycosaminoglycan (GAG) storage disease; KI is knock-in and KO knock-out; SDC1 is syndecan 1; higher = higher mutant VPS33A level
Details: 50 µM; 24 h
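Note: screen of an FDA-approved drug library, NanoLuc luminescence read after lysing the treated cells, taken as a measure of mutant VPS33A protein stability.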

Row | Compound | relative mutant VPS33A R498W amount
1 | CN1CCC[C@H]1c1cccnc1 [Nicotine Difartrate] | 0.911
2 | Cc1nccn1CC1CCc2c(c3ccccc3n2C)C1=O (configuration not stated) [Ondansetron HCl] | 0.959
3 | CCN1CCN(C(=O)N[C@@H](C(=O)N[C@@H]2C(=O)N3[C@@H]2SC(C)(C)[C@@H]3C(=O)O)c2ccccc2)C(=O)C1=O [Piperacillin Sodium] | 1.5
4 | CCCCCCCCCCCCCCCCCC(=O)OC [Stearic Acid methyl ester] | 1.67
5 | Nc1ccccc1NC(=O)c1ccc(CNC(=O)OCc2cccnc2)cc1 [Entinostat (MS-275,SNDX-275)] | 4.79
6 | C[N+](C)(C)CCOC(=O)CCC(=O)OCC[N+](C)(C)C [Succinylcholine Chloride Dihydrate] | 1.25
7 | CNC[C@H](O)c1ccc(O)c(O)c1 [Epinephrine HCl] | 0.94
8 | CC(C)(C)C(=O)Oc1ccc(S(=O)(=O)Nc2ccccc2C(=O)NCC(=O)O)cc1 [Sivelestat (ONO-5046)] | 1.31
9 | COC(=O)C1=C(C)NC(C)=C(C(=O)OCCN2CCN(C(c3ccccc3)c3ccccc3)CC2)C1c1cccc([N+](=O)[O-])c1 (configuration not stated) [Manidipine] | 0.908
10 | CCc1ccc(CCOc2ccc(CC3SC(=O)NC3=O)cc2)nc1 (configuration not stated) [Pioglitazone HCl] | 1.01
11 | COc1ccc(NC(=O)c2ccc(C(=N)N(C)C)cc2)c(C(=O)Nc2ccc(Cl)cn2)c1 [Betrixaban] | 1.33
12 | O=C1CN(/N=C/c2ccc(-c3ccc([N+](=O)[O-])cc3)o2)C(=O)N1 [Dantrolene, sodium salt] | 6.37
13 | CC(C)NCC(O)c1ccc(NS(C)(=O)=O)cc1 (configuration not stated) [Sotalol] | 1.32
14 | COc1ccc2c(c1)c(CC(=O)O)c(C)n2C(=O)c1ccc(Cl)cc1 [Indomethacin] | 0.864
15 | CC(C)NC[C@H](O)COc1ccc(CCOCC2CC2)cc1 [Levobetaxolol HCl] | 1.35
16 | Cc1ccc(S(=O)(=O)NC(=O)NN2CCCCCC2)cc1 [Tolazamide] | 1.18

Row | Compound | relative mutant VPS33A R498W amount
17 | CC(=O)Oc1ccc(C(c2ccc(OC(C)=O)cc2)c2ccccn2)cc1 [Bisacodyl] | 0.955
18 | Nc1ccc(S(=O)(=O)Nc2ccccn2)cc1 [Sulfapyridine] | 1.13
19 | CC1(C)S[C@@H]2[C@H](NC(=O)[C@H](NC(=O)N3CCNC3=O)c3ccccc3)C(=O)N2[C@H]1C(=O)O [Azlocillin sodium salt] | 1.54
20 | C#Cc1cccc(Nc2ncnc3cc(OCCOC)c(OCCOC)cc23)c1 [Erlotinib Hydrochloride] | 0.484
21 | FC(F)(F)c1ccc(/C=C/c2nc(COc3ccc(CCCCn4ccnn4)cc3)co2)cc1 [Mubritinib (TAK 165)] | 1.45
22 | CC1(C)[C@@H](OC(=O)CCC(=O)O)CC[C@]2(C)[C@H]3C(=O)C=C4[C@@H]5C[C@@](C)(C(=O)O)CC[C@]5(C)CC[C@@]4(C)[C@]3(C)CC[C@@H]12 [Carbenoxolone disodium] | 1.86
23 | CC[C@H](C)[C@@H]1NC(=O)[C@H](Cc2ccc(OC)cc2)NC(=O)CCCSC[C@@H](C(=O)N2CCC[C@H]2C(=O)N[C@@H](CC(C)C)C(=O)NCC(N)=O)NC(=O)[C@H](CC(N)=O)NC(=O)[C@H](CCC(N)=O)NC1=O [Carbetocin] | 1.25
24 | NC(CO)C(=O)NNCc1ccc(O)c(O)c1O (configuration not stated) [Benserazide HCl] | 1.42
25 | CC1(C)S[C@@H]2[C@H](NC(=O)[C@H](N)c3ccc(O)cc3)C(=O)N2[C@H]1C(=O)O [Amoxicillin] | 1.13
26 | O=C(NC[C@H]1CN(c2ccc(N3CCOCC3=O)cc2)C(=O)O1)c1ccc(Cl)s1 [Rivaroxaban] | 0.953
27 | C[C@H](CCC(=O)O)[C@H]1CC[C@H]2[C@@H]3[C@@H](O)C[C@@H]4C[C@H](O)CC[C@]4(C)[C@H]3CC[C@]12C [Ursodiol] | 1.88
28 | C[C@H]1Oc2cc(cnc2N)-c2c(nn(C)c2C#N)CN(C)C(=O)c2ccc(F)cc21 | 0.254
29 | N[C@@H](CS)C(=O)O | 1.16
30 | COc1ccc2[nH]c([S@@+]([O-])Cc3ncc(C)c(OC)c3C)nc2c1 [Esomeprazole Sodium] | 0.924
31 | OCCN1C[C@H](O)[C@@H](O)[C@H](O)[C@H]1CO [Miglitol] | 1.57
32 | C[C@H](CCC(=O)NCCS(=O)(=O)O)[C@H]1CC[C@H]2[C@@H]3[C@@H](O)C[C@@H]4C[C@H](O)CC[C@]4(C)[C@H]3CC[C@]12C [Sodium Tauroursodeoxycholate (TUDC)] | 1.43
